From the supplement of paper PMC8728848
The other results are listed elsewhere or left out.

Assays:
Test in all cases: glycan array binding signal (z-score within array); higher = stronger binding
Conditions in all cases: glycan notation: IUPAC condensed, linker removed
[1] = biological target: Neu5Ac(a2-6)Gal(b1-4)GlcNAc(b1-2)Man(a1-3)[Man(a1-6)]Man(b1-4)GlcNAc(b1-4)GlcNAc
How it was run: (§1)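 Glycan array binding is given as a within-array Z-score, which can be read as non-binding when negative. The arrays, 3228 of them, came from the Consortium for Functional Glycomics database and were retained only where the protein sequence was available. Z-scores were averaged across arrays of the same protein sequence at different concentrations or buffers and across linkers.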

[2] = biological target: Neu5Ac(a2-6)Gal(b1-4)GlcNAc(b1-2)Man(a1-3)[Neu5Ac(a2-3)Gal(b1-4)GlcNAc(b1-2)Man(a1-6)]Man(b1-4)GlcNAc(b1-4)GlcNAc
How it was run: as §1

[3] = biological target: Neu5Ac(a2-6)Gal(b1-4)GlcNAc(b1-2)Man(a1-3)[Neu5Ac(a2-6)Gal(b1-4)GlcNAc(b1-2)Man(a1-6)]Man(b1-4)GlcNAc(b1-4)GlcNAc
How it was run: as §1

[4] = biological target: Neu5Ac(a2-6)Gal(b1-4)GlcNAc(b1-2)Man(a1-3)[Neu5Ac(a2-6)Gal(b1-4)GlcNAc(b1-2)Man(a1-6)]Man(b1-4)GlcNAc(b1-4)[Fuc(a1-6)]GlcNAc
How it was run: as §1

[5] = biological target: Neu5Ac(a2-6)Gal(b1-4)GlcNAc(b1-2)Man(a1-6)Man(b1-4)GlcNAc(b1-4)GlcNAc
How it was run: as §1

[6] = biological target: Neu5Ac(a2-6)Gal(b1-4)GlcNAc(b1-2)Man(a1-6)[Gal(b1-4)GlcNAc(b1-2)Man(a1-3)]Man(b1-4)GlcNAc(b1-4)GlcNAc
How it was run: as §1

[7] = biological target: Neu5Ac(a2-6)Gal(b1-4)GlcNAc(b1-2)Man(a1-6)[GlcNAc(b1-2)Man(a1-3)]Man(b1-4)GlcNAc(b1-4)GlcNAc
How it was run: as §1

[8] = biological target: Neu5Ac(a2-6)Gal(b1-4)GlcNAc(b1-2)Man(a1-6)[Man(a1-3)]Man(b1-4)GlcNAc(b1-4)GlcNAc
How it was run: as §1

[9] = biological target: Neu5Ac(a2-6)Gal(b1-4)GlcNAc(b1-2)[Neu5Ac(a2-6)Gal(b1-4)GlcNAc(b1-4)]Man(a1-3)[GlcNAc(b1-4)][Neu5Ac(a2-6)Gal(b1-4)GlcNAc(b1-2)[Neu5Ac(a2-6)Gal(b1-4)GlcNAc(b1-6)]Man(a1-6)]Man(b1-4)GlcNAc(b1-4)GlcNAc
How it was run: as §1

[10] = biological target: Neu5Ac(a2-6)Gal(b1-4)GlcNAc(b1-2)[Neu5Ac(a2-6)Gal(b1-4)GlcNAc(b1-4)]Man(a1-3)[GlcNAc(b1-4)][Neu5Ac(a2-6)Gal(b1-4)GlcNAc(b1-4)Man(a1-6)]Man(b1-4)GlcNAc(b1-4)GlcNAc
How it was run: as §1

[11] = biological target: Neu5Ac(a2-6)Gal(b1-4)GlcNAc(b1-2)[Neu5Ac(a2-6)Gal(b1-4)GlcNAc(b1-6)]Man(a1-6)[Neu5Ac(a2-6)Gal(b1-4)GlcNAc(b1-2)Man(a1-3)][GlcNAc(b1-4)]Man(b1-4)GlcNAc(b1-4)GlcNAc
How it was run: as §1

[12] = biological target: Neu5Ac(a2-6)Gal(b1-4)GlcNAc(b1-3)Gal(b1-3)GlcNAc
How it was run: as §1

[13] = biological target: Neu5Ac(a2-6)Gal(b1-4)GlcNAc(b1-3)Gal(b1-4)GlcNAc
How it was run: as §1

[14] = biological target: Neu5Ac(a2-6)Gal(b1-4)GlcNAc(b1-3)Gal(b1-4)GlcNAc(b1-2)Man(a1-3)[Neu5Ac(a2-6)Gal(b1-4)GlcNAc(b1-3)Gal(b1-4)GlcNAc(b1-2)Man(a1-6)]GalNAc
How it was run: as §1

[15] = biological target: Neu5Ac(a2-6)Gal(b1-4)GlcNAc(b1-3)Gal(b1-4)GlcNAc(b1-3)Gal(b1-4)GlcNAc
How it was run: as §1

[16] = biological target: Neu5Ac(a2-6)Gal(b1-4)GlcNAc(b1-3)Gal(b1-4)GlcNAc(b1-3)Gal(b1-4)GlcNAc(b1-2)Man(a1-3)[Neu5Ac(a2-6)Gal(b1-4)GlcNAc(b1-3)Gal(b1-4)GlcNAc(b1-3)Gal(b1-4)GlcNAc(b1-2)Man(a1-6)]GalNAc
How it was run: as §1

[17] = biological target: Neu5Ac(a2-6)Gal(b1-4)GlcNAc(b1-3)Gal(b1-4)GlcNAc(b1-3)GalNAc
How it was run: as §1

[18] = biological target: Neu5Ac(a2-6)Gal(b1-4)GlcNAc(b1-3)Gal(b1-4)GlcNAc(b1-3)[Neu5Ac(a2-6)Gal(b1-4)GlcNAc(b1-3)Gal(b1-4)GlcNAc(b1-6)]GalNAc
How it was run: as §1

[19] = biological target: Neu5Ac(a2-6)Gal(b1-4)GlcNAc(b1-3)Gal(b1-4)GlcNAc(b1-6)[Gal(b1-3)]GalNAc
How it was run: as §1

[20] = biological target: Neu5Ac(a2-6)Gal(b1-4)GlcNAc(b1-3)Gal(b1-4)[Fuc(a1-3)]GlcNAc(b1-3)Gal(b1-4)[Fuc(a1-3)]GlcNAc
How it was run: as §1

[21] = biological target: Neu5Ac(a2-6)Gal(b1-4)GlcNAc(b1-3)GalNAc
How it was run: as §1

[22] = biological target: Neu5Ac(a2-6)Gal(b1-4)GlcNAc(b1-3)[Neu5Ac(a2-6)Gal(b1-4)GlcNAc(b1-6)]GalNAc
How it was run: as §1

[23] = biological target: Neu5Ac(a2-6)Gal(b1-4)GlcNAc(b1-6)GalNAc
How it was run: as §1

[24] = biological target: Neu5Ac(a2-6)Gal(b1-4)GlcNAc(b1-6)[Gal(b1-3)GlcNAc(b1-3)]Gal(b1-4)Glc
How it was run: as §1

[25] = biological target: Neu5Ac(a2-6)Gal(b1-4)GlcNAc(b1-6)[Gal(b1-3)]GalNAc
How it was run: as §1

[26] = biological target: Neu5Ac(a2-6)Gal(b1-4)GlcNAc6S
How it was run: as §1

[27] = biological target: Neu5Ac(a2-6)GalNAc
How it was run: as §1

[28] = biological target: Neu5Ac(a2-6)GalNAc(b1-4)GlcNAc
How it was run: as §1

[29] = biological target: Neu5Ac(a2-6)GalNAc(b1-4)GlcNAc6S
How it was run: as §1

[30] = biological target: Neu5Ac(a2-6)GlcNAc(b1-4)GlcNAc
How it was run: as §1

B1: mCC1-Hexahis-Precomplexed (Mus musculus), P31809 (protein)
chain: MELASAHLHKGQVPWGGLLLTASLLASWSPATTAEVTIEAVPPQVAEDNNVLLLVHNLPLALGAFAWYKGNTTAIDKEIARFVPNSNMNFTGQAYSGREIIYSNGSLLFQMITMKDMGVYTLDMTDENYRRTQATVRFHVHPILLKPNITSNNSNPVEGDDSVSLTCDSYTDPDNINYLWSRNGESLSEGDRLKLSEGNRTLTLLNVTRNDTGPYVCETRNPVSVNRSDPFSLNIIYGPDTPIISPSDIYLHPGSNLNLSCHAASNPPAQYFWLINEKPHASSQELFIPNITTNNSGTYTCFVNNSVTGLSRTTVKNITVLEPVTQPFLQVTNTTVKELDSVTLTCLSNDIGANIQWLFNSQSLQLTERMTLSQNNSILRIDPIKREDAGEYQCEISNPVSVRRSNSIKLDIIFDPTQGGLSDGHHHHHH
glycan array binding signal (z-score) [1]: 0.014
glycan array binding signal (z-score) [2]: -0.176
glycan array binding signal (z-score) [3]: -0.156
glycan array binding signal (z-score) [4]: -0.24
glycan array binding signal (z-score) [5]: -0.152
glycan array binding signal (z-score) [6]: -0.207
glycan array binding signal (z-score) [7]: -0.233
glycan array binding signal (z-score) [8]: -0.124
glycan array binding signal (z-score) [9]: -0.178
glycan array binding signal (z-score) [10]: -0.226
glycan array binding signal (z-score) [11]: -0.129
glycan array binding signal (z-score) [12]: -0.285
glycan array binding signal (z-score) [13]: -0.188
glycan array binding signal (z-score) [14]: 0.836
glycan array binding signal (z-score) [15]: -0.234
glycan array binding signal (z-score) [16]: 4.99
glycan array binding signal (z-score) [17]: -0.045
glycan array binding signal (z-score) [18]: 9.54
glycan array binding signal (z-score) [19]: 2.09
glycan array binding signal (z-score) [20]: -0.116
glycan array binding signal (z-score) [21]: -0.24
glycan array binding signal (z-score) [22]: -0.139
glycan array binding signal (z-score) [23]: -0.131
glycan array binding signal (z-score) [24]: -0.208
glycan array binding signal (z-score) [25]: -0.104
glycan array binding signal (z-score) [26]: -0.278
glycan array binding signal (z-score) [27]: -0.234
glycan array binding signal (z-score) [28]: -0.234
glycan array binding signal (z-score) [29]: -0.231
glycan array binding signal (z-score) [30]: -0.183
